# Experimental data published in paper PMC4336329 (PLoS ONE, 2015).
# The whole screen tested about 310,000 compounds, of which about 2,200 (0.71%) showed an effect of 50% or more. Effects have a minus sign here. The list shows a part of the results.
# Target: human ether-à-go-go-related gene (hERG) potassium channel (human, UniProt Q12809)
# Test: primary screen, population patch clamp on CHO cells stably expressing hERG
# Chain of human ether-à-go-go-related gene (hERG) potassium channel (Q12809 whole entry, looked up): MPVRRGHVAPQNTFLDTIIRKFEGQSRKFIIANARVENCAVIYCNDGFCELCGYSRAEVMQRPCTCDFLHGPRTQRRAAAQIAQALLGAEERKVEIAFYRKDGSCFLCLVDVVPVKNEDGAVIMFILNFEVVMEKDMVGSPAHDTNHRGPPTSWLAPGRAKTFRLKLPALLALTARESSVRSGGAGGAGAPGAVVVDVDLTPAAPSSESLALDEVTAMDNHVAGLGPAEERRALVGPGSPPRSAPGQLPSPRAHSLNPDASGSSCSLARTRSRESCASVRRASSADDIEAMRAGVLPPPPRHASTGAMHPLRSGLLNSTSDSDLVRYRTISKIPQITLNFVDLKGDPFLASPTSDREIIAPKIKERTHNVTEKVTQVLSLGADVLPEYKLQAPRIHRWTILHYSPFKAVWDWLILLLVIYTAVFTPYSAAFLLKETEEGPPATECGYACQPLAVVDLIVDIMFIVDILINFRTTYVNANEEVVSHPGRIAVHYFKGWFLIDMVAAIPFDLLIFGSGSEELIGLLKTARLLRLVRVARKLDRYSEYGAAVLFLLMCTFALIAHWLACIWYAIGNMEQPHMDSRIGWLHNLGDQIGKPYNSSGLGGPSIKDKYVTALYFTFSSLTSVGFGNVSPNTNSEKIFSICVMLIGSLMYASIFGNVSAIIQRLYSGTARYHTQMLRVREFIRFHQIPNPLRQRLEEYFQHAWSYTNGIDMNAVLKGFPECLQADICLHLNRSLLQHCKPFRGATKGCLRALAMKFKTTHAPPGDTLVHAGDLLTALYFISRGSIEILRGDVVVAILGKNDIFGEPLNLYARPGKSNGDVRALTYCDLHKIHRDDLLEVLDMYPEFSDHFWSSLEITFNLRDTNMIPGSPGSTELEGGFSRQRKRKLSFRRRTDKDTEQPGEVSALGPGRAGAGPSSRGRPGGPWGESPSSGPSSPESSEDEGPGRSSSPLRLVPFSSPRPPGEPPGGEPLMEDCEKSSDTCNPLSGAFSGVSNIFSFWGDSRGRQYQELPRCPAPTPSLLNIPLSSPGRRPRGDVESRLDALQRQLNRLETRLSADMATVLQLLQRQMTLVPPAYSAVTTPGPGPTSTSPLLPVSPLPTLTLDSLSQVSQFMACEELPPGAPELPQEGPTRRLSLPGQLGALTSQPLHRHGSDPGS
row,SMILES,"hERG current change (%, negative = inhibition) at 1uM [%]"
1,O=C(Nc1ccon1)c1ccc(N2CCCCC2)c([N+](=O)[O-])c1,9.77
2,CC[N+](CC)(CC#Cc1ccccc1)CC#Cc1ccccc1.[Br-],-27.3
3,COc1ccc(C(=O)N(C)C2CCCCC2)cc1OC1CCN(C(C)C)CC1,4.29
4,O=C(NCCO)/C(=C\c1ccco1)NC(=O)c1cccs1,15.5
5,O=C(NCc1ccco1)c1cc(=O)c2ccccc2o1,15.9
6,Oc1ccccc1OCCOc1ccccc1OCCOc1ccccc1O,7.63
7,Cc1ccc(NC2CCCN(C(=O)Cc3nonc3C)C2)cc1C (stereo not shown),20.8
8,COc1ccc(C(CC(=O)O)N2Cc3ccccc3C2=O)cc1OC (stereo not shown),12.1
9,Cc1ccc(NC(=O)COC(=O)CN2C(=O)COc3ccccc32)cc1,13.2
10,O=C(NCc1nc2ccccc2[nH]1)C1=C[C@@H](c2ccc(Br)cc2)C[C@@H](OCc2ccc(CO)cc2)O1,-1.96
11,COc1cc2c(cc1OC)C1(Nc3c-2c(-c2ccccc2)nn3-c2ccccc2)C(=O)Nc2ccccc21 (stereo not shown),13.3
12,CCOC(=O)COc1coc(CN2CCN(c3ccccc3)CC2)cc1=O,15.8
13,CC1CC(=O)C2=C(C1)Nc1ccccc1SC2c1ccc(F)cc1 (stereo not shown),6.85
14,CCCCOC(=O)CCCc1ccc([N+](=O)[O-])cc1[N+](=O)[O-],-3.62
15,CN(C)/C=C/C(=O)c1ccc(Cl)cc1Cl,12.1
16,COc1ccc(NC(=O)CCNS(=O)(=O)c2cccc3nsnc23)cc1,9.08
17,O=C(OCCNC(=O)c1ccc2ccccc2n1)c1cccnc1,-8.58
18,CCn1c(/C=N/c2nc3ccccc3n2C)nc2ccccc21,-0.915
19,CCOC(=O)C(NC(=O)CC)(Nc1sc(C)c(CC)c1C#N)C(F)(F)F (stereo not shown),-0.757
20,CC(NCc1ccc(F)cc1)C(=O)Nc1cc(S(=O)(=O)N2CCCCC2)ccc1Cl (stereo not shown),4.54
21,Cc1ccc(OCC(=O)NS(=O)(=O)c2ccc(Cl)cc2)cc1,14.1
22,O=C(N1CCN(c2ccccc2)CC1)C1(S(=O)(=O)c2ccc(Cl)cc2)CC1,-12.4

row,SMILES,"hERG current change (%, negative = inhibition) at 1uM [%]"
1,COc1ccc2c(CC(=O)N[C@@H](Cc3ccccc3)C(=O)O)cc(=O)oc2c1,13.1
2,Cc1cccc(NC(=O)c2cc(NC(=O)C3CCCCC3C(=O)O)ccc2N2CCCCC2)c1 (stereo not shown),-4.58
3,O=C(NCc1ccco1)c1ccc(C(=O)NCc2ccco2)s1,3.18
4,CNC(=O)c1cnc(-c2ccccc2)nc1-c1ccccc1,12.5
5,O=S(=O)(c1ccccc1)[C@@]1(c2ccc(Br)cc2)C[C@@H]2ON=C(c3cccc(Br)c3)[C@@H]2C1,-1.59
6,NC(=O)c1ccccc1NC(=O)CN1CCN(Cc2ccccc2)CC1,-77.7
7,COc1cccc(C(=O)Nc2cc(=O)n(C)c(=O)n2C)c1OC,11.4
8,CC(C)CC(C(=O)Nn1cnnc1)N1C(=O)c2ccccc2C1=O (stereo not shown),9.33
9,Cc1cc(C)c(OCC(=O)NCC2COc3ccccc3O2)c(C)c1 (stereo not shown),1.11
10,CCCn1c(=O)[nH]c(=O)c2c1nc(-c1ccc(C#N)cc1)n2CCOC,8.82
11,Cc1ccc2nsnc2c1N,10.9
12,COc1cc(C(=O)ON=C2C=C(C)C(=O)C(C)=C2)cc(OC)c1OC,2.11
13,CCOC(=O)C(=CNc1ccc2c(c1)nnn2-c1ccc(Cl)cc1)C(=O)OCC,1.84
14,CCCc1nc(SCC(=O)NC2CC2)c2c(C)c(C)sc2n1,-0.874
15,O=C(NC1CC1)C1CC(=O)N(c2cccc(Cl)c2Cl)C1 (stereo not shown),13.1
16,c1ccc(-c2csc3nnc(SCc4ccc5c(c4)OCO5)n23)cc1,-14.3
17,CCCCCOC(=O)c1[nH]c2c(c1C)C(=O)C(C(=O)OC)C(C)C2 (stereo not shown),14.9
18,Cc1ccccc1Cn1nc(C)c(NC(=O)C2c3ccccc3Oc3ccccc32)c1C,2.28
19,CC(CN1CCN(Cc2ccccc2)CC1)OC(=O)c1ccco1.Cl (stereo not shown),-3.97
20,C=CCOc1ccccc1CN(CCc1ccccc1)C(=O)c1cccc(S(C)(=O)=O)c1,-8.67
21,CC12CCC(=O)N1C(C(=O)OCC(=O)Nc1sccc1C#N)CS2 (stereo not shown),7.17
22,CCN1C(=O)C(CC(=O)Nc2ccc(OC)cc2)N(CCc2ccccc2F)C1=S (stereo not shown),9.05

row,SMILES,"hERG current change (%, negative = inhibition) at 1uM [%]"
1,CC(=O)/C(=N/Nc1ccccc1[N+](=O)[O-])N1CCCc2ccccc21,9.41
2,Cc1nc2cc(C)c(C)cc2s1,15.5
3,COC(=O)c1ccc(C(=O)OC)c(NC(=O)C(C)(C)C)c1,12.4
4,Cc1cc(C)c2c(-n3cccc3)c(C(=O)NNS(=O)(=O)c3ccc(Br)cc3)sc2n1,11.2
5,NC(=O)c1c(NC(=O)CN2C(=O)CCC2=O)sc2c1CCCCC2,12.1
6,O=C(Nc1ccccc1Br)c1ccc(OC(=S)N2CCOCC2)cc1,12.3
7,Cc1[nH]c(=O)[nH]c(=O)c1S(=O)(=O)N1CCOCC1,13.5
8,Nc1nnc(N2CCCCCC2)s1,-8.04
9,CCCCC(=O)Nc1cccc(-c2ccc3nncn3n2)c1,1.75
10,S=P(NC1CCCCC1)(N1CC1)N1CC1,13.4
11,CC(=O)Nc1ccc(NC(=O)C(C)OC(=O)c2cc(S(=O)(=O)N3CCOCC3)ccc2Cl)cc1 (stereo not shown),9.26
12,CCOC(=O)c1nn(-c2ccc(Cl)cc2)c(C)cc1=O,12.1
13,COc1cc(CCC(=O)Nc2ccc(C)c(S(=O)(=O)N(C)C)c2)cc(OC)c1OC,6.52
14,COC(=O)c1ccc(NC(=O)N(c2ccccc2)c2ccccc2)cc1,13.2
15,CCOc1ccc2[nH]c(=S)[nH]c2c1,14.3
16,CS(=O)(=O)c1ccc(C(=O)NC2CCCc3ccccc32)cc1 (stereo not shown),15.4
17,CCCCn1nc(C(=O)NCC(=O)Nc2c(C)cccc2C)c2ccccc2c1=O,-1.42
18,CN1C(=O)C(CC(=O)Nc2ccc(F)cc2)N(Cc2cccs2)C1=S (stereo not shown),9.28
19,Cn1nc(CC(=O)Nc2cccc3ncccc23)c2ccccc2c1=O,2.04
20,CC(=O)NC(CCCN1C(=O)c2ccccc2C1=O)c1nnn(C)n1 (stereo not shown),12.7
21,CCN(CC)C(=O)Cn1cc(S(=O)(=O)CC(=O)NCCc2ccc(OC)c(OC)c2)c2ccccc21,11.1
22,CNc1cc(N2CCN(C)CC2)ccc1[N+](=O)[O-],6.1

row,SMILES,"hERG current change (%, negative = inhibition) at 1uM [%]"
1,COc1ccccc1-n1cnnc1SCC(=O)NC1CCCC1,3.6
2,O=C(C1=C[C@H](C2CCCCC2)C[C@H](OCCCCO)O1)N1CCN(Cc2ccccc2)CC1,-9.59
3,Nn1c(SCC(=O)Nc2ccc(OC(F)F)cc2)nnc1-c1ccco1,1.71
4,CC1CCCCN1C(=O)COc1ccc(S(=O)(=O)N2CCCC2)cc1[N+](=O)[O-] (stereo not shown),2.79
5,O=C(CN(c1ccccc1Cl)S(=O)(=O)c1ccccc1)N/N=C/c1ccccc1C(=O)O,13.6
6,COc1ccc(N(C(=O)c2ccco2)C(C(=O)NC2CCCCC2)c2ccccc2)cc1 (stereo not shown),14.3
7,Cc1noc(/C=C/c2ccco2)c1S(=O)(=O)N1CCC(C(=O)N(C)Cc2ccccc2)CC1,2.38
8,Cc1nc2ccc(NC(=O)c3ccco3)cc2s1,8.97
9,COc1ccc(OC)c(N=c2ssnc2Cl)c1,1.47
10,CCOc1ccc(-n2c(SCC(=O)Nc3nccs3)nc3c(c2=O)SCC3)cc1,-0.546
11,O=C(c1ccc(Cl)c(F)c1F)N1CCCC1,11.8
12,CC(C)(C=O)C1=CC(=O)c2ccccc2C1=O,6.94
13,COc1ccc(-n2c(SCC(=O)Nc3nccs3)nc3c(c2=O)SC(C)C3)cc1 (stereo not shown),2.22
14,CCN(CC(=O)NCc1ccc(Cl)cc1)C(=O)COc1ccc(C)cc1C,-43.8
15,CC(=O)Nc1ccc(C(=O)CN2C(=O)NC3(CCOc4ccccc43)C2=O)c(F)c1 (stereo not shown),0.0215
16,O=C(C1CCN(S(=O)(=O)c2cccc3nsnc23)CC1)N1CCn2c1nc1ccccc12,2.78
17,NC(=O)C1CCN(c2nc(-c3ccc(F)cc3)cs2)CC1,9.59
18,CN1CCN(C(c2cccs2)c2nnnn2Cc2ccc(F)cc2)CC1.Cl (stereo not shown),9.5
19,Cc1cc(C)nc(SCc2cccc(C(=O)O)c2)n1,0.978
20,Cc1ccccc1OCC(=O)NNC(=O)c1cc(S(=O)(=O)N(C)C)ccc1N1CCCC1,4.06
21,C=CCNc1nc(C(=O)OCC(=O)NCc2cccc(Cl)c2)cs1,3.5
22,O=C(NCCS(=O)(=O)N1CCN(c2ccccc2)CC1)c1ccc(Br)o1,9.2
